# Results from PubChem BioAssay AID1508623 (National Center for Advancing Translational Sciences (NCATS), 2021).
# The whole screen tested about 48,000 compounds, of which about 450 (0.94%) were called active. Inconclusive results (about 19%) are left out. The call rests on the fitted dose curve; in most records, active means well fitted inhibition curve with a large enough effect; inconclusive means small, poorly fitted or top-dose-only effect; inactive means no such curve, though single readings can be large or run the other way. This is one part of the list.
# Assay: Primary qHTS for Identification of Small Molecule Inhibitors of Huntingtin Promoter Activity; further: nearly all actives have a fitted effect of over 50% in size
# Conditions: HEK293 HTT promoter firefly luciferase reporter (activity 0% = vehicle and -100% = no light), 24 h; activity change, negative = inhibition: at the top concentration
# How it was run: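 Luminescence was read after Dual-Glo reagent and a 10 min room-temperature incubation. Values were normalized to vehicle (0% activity) and zero RLU (-100% activity). Reporter HEK293 cells had been exposed to compounds (up to 57.5 uM final) for 24 h.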
row,Structure (SMILES),"activity change, negative = inhibition"
1,O=C(N[C@H]1CN2CCC1CC2)c1ccc(Cl)cc1,inactive: 228%
2,C#CC1(O)CCC2C3CCC4=CC(=O)CCC4(C)C3CCC21C (configuration not stated),inactive: -10.8%
3,O=C1OC(CCN2CCCCC2)OC1(c1ccccc1)c1ccccc1 (configuration not stated),inactive: 8.19%
4,CCOc1ccc2nc(NC(=O)c3cccn(Cc4ccc(Cl)cc4)c3=O)sc2c1,inactive: -28.3%
5,Cc1cc(O)ccc1Cl,inactive: 9.46%
6,CCCC(C)C1(CC)C(=O)N=C(S)NC1=O (configuration not stated),inactive: -5.98%
7,CCc1ccccc1NC(=O)c1cccn(Cc2ccccc2F)c1=O,inactive: -4.48%
8,CCOc1ccc2nc(NC(=O)c3cccn(Cc4ccccc4)c3=O)sc2c1,inactive: -5.63%
9,C=C(C)[C@H]1CN[C@H](C(=O)O)[C@H]1CC(=O)O,inactive: -0.262%
10,NC1CC1c1ccccc1 (configuration not stated),inactive: 2.16%
11,O=C(Nc1ccc(Cl)cc1C(=O)c1ccccc1)c1cc(Cl)cc(Cl)c1,inactive: -2.26%
12,Cn1cc(/C=C/c2nc3ccccc3c(=O)n2-c2ccccc2)c2ccccc21,inactive: -6.04%
13,Cc1ccc(-c2nc3ccc(C)cn3c2CC(=O)N(C)C)cc1,inactive: 3.67%
14,O=C(Nc1ccc2c(c1)OCO2)c1cccn(Cc2cccc(F)c2)c1=O,inactive: 0%
15,Nc1nc(N)nc(NC2CC2)n1,inactive: -0.161%
16,CN(C)CCN(C)CCc1ccc(Cl)c(Cl)c1,inactive: -12.4%
17,COc1ccccc1NC(=O)N(Cc1ccc2c(c1)OCO2)C1CCN(Cc2ccccc2)CC1,inactive: -21.6%
18,COc1cc(C(c2c(O)c3ccccc3oc2=O)c2c(C)n(C)n(-c3ccccc3)c2=O)ccc1OCC(=O)O (configuration not stated),inactive: 5.84%
19,O=C(Nc1ccc(Cl)cc1C(=O)c1ccccc1)c1ccccc1Br,inactive: -12.1%

row,Structure (SMILES),"activity change, negative = inhibition"
1,CC(C(=O)c1ccccc1)N(C)C (configuration not stated),inactive: 2.63%
2,Cc1c(Cl)cccc1NC(=O)CN1C(=O)C(C)N=C(c2ccccc2)c2ccccc21 (configuration not stated),inactive: -3.12%
3,Cc1cccc(-n2c(/C=C/c3c(C)[nH]c4ccccc34)nc3ccccc3c2=O)c1,inactive: -7.65%
4,Nc1c(C(=O)Nc2ccc(Br)cc2F)sc2nc3c(cc12)N1CCC3CC1,inactive: -29.1%
5,CCN(CC)CCOC(=O)C(C)(c1ccccc1)c1ccccc1,inactive: 0.763%
6,CC(C)=CCOc1c2occc2cc2ccc(=O)oc12,inactive: -1.41%
7,N[C@@H](Cc1ccc(N(CCCl)CCCl)cc1)C(=O)O,inactive: -10.5%
8,Cc1nnc(NC(=O)c2cccn(Cc3cccc(Cl)c3)c2=O)s1,inactive: 27.1%
9,CCC(=O)OC1CCC2C3CCC4=CC(=O)CC[C@@]4(C)C3CC[C@]12C (some centres not stated),inactive: 17.5%
10,C=CCN1C[C@H](C)N([C@H](c2ccc(C(=O)N(CC)CC)cc2)c2cccc(OC)c2)C[C@H]1C,inactive: 0.0402%
11,COc1cc(C(c2c(O)c3ccccc3oc2=O)c2c(C)n(C)n(-c3ccccc3)c2=O)ccc1O (configuration not stated),inactive: -2.74%
12,CC(C)N(CCC(C(N)=O)(c1ccccc1)c1ccccn1)C(C)C (configuration not stated),inactive: 6.55%
13,CN1CCN(c2oc(-c3ccc(COc4ccccc4)o3)nc2C#N)CC1,inactive: -17.1%
14,CC(Cc1ccc(O)cc1)NCC(O)c1cc(O)cc(O)c1 (configuration not stated),inactive: 7.65%
15,N#Cc1cccc(NC(=O)c2sc3nc4c(cc3c2N)N2CCC4CC2)c1,inactive: 21.3%
16,Cc1oc(-c2ccccc2Cl)nc1CN1C(=O)CN=C(c2ccccc2)c2cc(Cl)ccc21,inactive: -23.2%
17,C=CC[C@]1(O)CC[C@H]2[C@@H]3CCC4=CC(=O)CCC4=C3C=C[C@@]21C,inactive: -9.66%
18,CS(=O)(=O)c1ccc(C(=O)C2C(=O)CCCC2=O)c([N+](=O)[O-])c1,inactive: 11.7% [at 116 µM]
19,CCCN1CCC[C@@H]2Cc3nc(N)ncc3C[C@H]21,inactive: 10.9%

row,Structure (SMILES),"activity change, negative = inhibition"
1,CCN[C@@H](C)Cc1ccccc1,inactive: -4.52% [at 116 µM]
2,CCO[C@H]1O[C@@H]2OC3(C)CC[C@H]4[C@H](C)CC[C@@H]([C@H]1C)[C@@]24OO3,inactive: -23.1%
3,N#Cc1cc2c(nc1SCC(=O)Nc1ccc(F)c(Cl)c1)C1CCN2CC1,inactive: -21.2%
4,COc1cc(CC(C)N)cc2c1OCO2 (configuration not stated),inactive: -1.48% [at 116 µM]
5,O=C1CC(c2ccc(F)cc2)c2c(c3ccccc3oc2=O)O1 (configuration not stated),inactive: 21.5%
6,CC(C)(C)[C@]1(O)C[C@@H]2OC(=O)C[C@@]23C(=O)O[C@@H]2OC(=O)[C@H](O)C213 (some centres not stated),inactive: -0.713%
7,COc1ccc(CCNCc2ccc3c(c2)n(C)c(=O)n3C)cc1,inactive: -11.8%
8,COCC1(CO)C(=O)C2CCN1CC2 (configuration not stated),inactive: -18.5%
9,CCCC12CN3CC(C)(CN(C1)C3c1ccccn1)C2=O (configuration not stated),inactive: -12%
10,CC(=O)N(C)c1cccc(-c2ccnc3c(C(=O)c4cccs4)cnn23)c1,inactive: 5.46%
11,CC(Cc1ccc2c(c1)OCO2)NO (configuration not stated),inactive: 13.6% [at 116 µM]
12,O=S(=O)(CC1CS1)c1ccc(Oc2ccccc2)cc1 (configuration not stated),inactive: 13.4%
13,CC(C)(C)NC[C@H](O)c1ccc(O)cc1Cl,inactive: -2.07%
14,COC(C)(C)CCCC(C)C/C=C/C(C)=C/C(=O)OC(C)C (configuration not stated),inactive: -0.504%
15,CC(C)(C)c1ccc(OCC(=O)Nc2ccc(Cl)cc2C(=O)c2ccccc2)cc1,inactive: -4.82%
16,CCOc1ccccc1CN(CCc1ccc2c(c1)OCO2)Cc1ccc(CC)cc1,inactive: -19%
17,CSc1ncc(C(=O)Nc2ccc(Cl)cc2C(=O)c2ccccc2)c(C)n1,inactive: 0.612%
18,N#Cc1cccc(NC(=O)CSc2nc3c(cc2C#N)N2CCC3CC2)c1,inactive: 41.2%
19,Cc1nnc(NC(=O)c2cccn(Cc3cccc([N+](=O)[O-])c3)c2=O)s1,inactive: -9.92%
